The supplement of paper PMC10126150
Values marked as one replicate rest on one cluster of the flow cell; about a third of the high ones do not repeat.

These sequences were tested on ATP (assay: switch fluorescence ratio, 500 uM ATP over buffer (Cy3 cluster intensity, sum of 5 cycles each) (fold (ratio)); higher = stronger signal-on switching upon ATP binding; sequences stand for … in TCGTCGGCAGCGTCAGATGTGTATAAGAGACAGTTTTTTTTTTTTTTTTTTTTTTTTT…TC). Settings: aptamer strand: ATP DNA aptamer (quencher-CACCTGGGGGAGTATTGCGGAGGAAGG + anchor), 100 nM annealed; ATP concentration: 500 uM; one replicate.
Method in brief: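 The quencher-labelled ATP aptamer, at 100 nM, was annealed to Cy3-labelled switching-strand clusters on a modified Illumina MiSeq flow-cell. The clusters were imaged in selection buffer, then after 15 min with 500 uM ATP at 22 °C, and this buffer/ATP cycle ran five times with NaOH stripping and re-annealing between runs. Per-cluster fluorescence ratios, summed target-cycle over summed buffer-cycle Cy3 intensity, were averaged per switch-domain sequence. Clusters outside 100-1000 RFU were excluded.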
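Also: ATP exposure 15 min at 22 °C before imaging.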

Sequence | switch fluorescence ratio
CCTAAGGGAC | 1.07
CCTAAGGTCC | 1.02
CCTAAGTTGT | 1.05
CCTAATCCAG | 1.04
CCTAATCCC | 1.04
CCTACCTAGT | 1.07
CCTACGGGTT | 1.47
CCTACTTTTA | 1.06
CCTAGAAGGA | 1
CCTAGAGCGC | 1.09
CCTAGATTAA | 1.02
CCTAGCCCCG | 1.08
CCTAGGAGCT | 1.07
CCTAGGATGC | 1.15
CCTAGGGGCG | 0.987
CCTAGTAAGC | 1.87
CCTAGTAC | 1.12
CCTAGTCAAA | 1.15
CCTATACGTC | 1.11
CCTATAGTTT | 0.977
CCTATATGCC | 0.976
CCTATATGG | 0.967
CCTATTTTGA | 0.966
CCTCAAGTCA | 1.49
CCTCAATAGA | 1.92
CCTCAATATT | 2.23

Sequence | switch fluorescence ratio
CCTCAGGTAA | 2.92
CCTCATATGG | 1.14
CCTCCACGGG | 3.78
CCTCCTATTT | 1.44
CCTCGCTCGG | 2.15
CCTCGGCGGG | 1.7
CCTCGGTCCT | 1.3
CCTCGTCTAT | 3.24
CCTGAAGGTA | 1.03
CCTGAATTGG | 1.01
CCTGAGCCGT | 1.1
CCTGAGGATA | 1.04
CCTGATTAGT | 1.02
CCTGCAAACG | 4.16
CCTGCCGAAG | 2.84
CCTGCGAATT | 2.37
CCTGGATGGC | 1.02
CCTGGCAGGG | 1.01
CCTGGCCAAA | 0.974
CCTGGTACCG | 1.01
CCTGGTTCCG | 1.21
CCTGTAAGTG | 0.968
CCTGTCCTGT | 1.03
CCTGTGGCTA | 1.4
CCTGTGTGAA | 0.972
CCTGTTAAGA | 1

Sequence | switch fluorescence ratio
CCTGTTCATA | 0.996
CCTGTTGAAG | 1
CCTGTTGGCG | 1.04
CCTGTTGGGT | 1.04
CCTTAAAAGT | 1.02
CCTTAAACAA | 1.21
CCTTAAAGAG | 1.17
CCTTAACCAG | 1.04
CCTTATGACA | 0.982
CCTTATGTTT | 0.953
CCTTCAAACC | 1.25
CCTTCAGGGA | 0.965
CCTTCCCATT | 1.93
CCTTGAGGCT | 1.01
CCTTGATATA | 1.01
CCTTGATCA | 1.02
CCTTGGGCTC | 1.56
CCTTGGGTGA | 1.22
CCTTGGGTTA | 1.03
CCTTGTAGGC | 1.07
CCTTGTGCCC | 0.964
CCTTTAATAA | 1.15
CCTTTAGACA | 1.02
CCTTTCATGG | 1.03
CCTTTGATGA | 1.05
CCTTTTAGTA | 1.01

Sequence | switch fluorescence ratio
CCTTTTTTG | 1.05
CGAAAAGTGT | 0.935
CGAAACCGT | 1.13
CGAAACCTGT | 1.11
CGAAACGAAA | 0.97
CGAAAGATCG | 1.03
CGAAAGTTCG | 1.02
CGAAATATGG | 1.04
CGAAATATTC | 1.23
CGAAATCTGA | 1.01
CGAAATTCA | 0.971
CGAAATTCCC | 1.84
CGAAATTGAG | 1.09
CGAACACTCG | 1.11
CGAACAGAAC | 1.1
CGAACGGTTC | 1.03
CGAACGTGTA | 1.16
CGAAGAAGTG | 0.971
CGAAGAATAG | 1.05
CGAAGATTGT | 0.957
CGAAGGCCTT | 0.961
CGAAGGTGTT | 1.16
CGAAGTGGCT | 0.956
CGAAGTGTCA | 0.997
CGAATAGACG | 1
CGAATAGCGC | 0.98

Sequence | switch fluorescence ratio
CGAATCATCT | 0.905
CGAATCGTTT | 0.991
CGAATTATTC | 1.01
CGAATTTC | 1.02
CGACAGCCTG | 0.882
CGACAGGGCG | 0.917
CGACATCGGG | 0.967
CGACATCTTT | 1.01
CGACCATTTT | 1.03
CGACCTGTCT | 1.03
CGACGTCCAC | 2.2
CGACGTGGAC | 4.55
CGACGTTGCC | 1.22
CGACTACAGA | 1.04
CGACTAGAGG | 0.988
CGACTGGAGT | 1.06
CGACTTAGC | 0.981
CGAGAAGCCC | 0.994
CGAGAATCGG | 0.971
CGAGAATGTC | 0.986
CGAGACGCGC | 0.999
CGAGATTCTA | 0.984
CGAGCCGGTC | 0.947
CGAGCGACCT | 1.21
CGAGCTATGA | 1.09
CGAGCTCAAG | 1.03

Sequence | switch fluorescence ratio
CGAGCTCCGT | 1.14
CGAGGACGAC | 0.97
CGAGGAGTTG | 0.984
CGAGGATAAG | 0.987
CGAGGCACGA | 1.15
CGAGGCTGCT | 1.08
CGAGGGACT | 1.65
CGAGGGCGAG | 1.01
CGAGGGGTGC | 0.999
CGAGGTACGC | 1
CGAGGTCAGG | 1.01
CGAGTACATT | 1.03
CGAGTACCGA | 1.02
CGAGTCACGA | 1.06
CGAGTCGCGG | 0.987
CGAGTCTCAT | 1.01
CGAGTGTACG | 1.07
CGAGTTAGTC | 1
CGAGTTGCCC | 0.988
CGAGTTGGGA | 0.987
CGAGTTTGCG | 1.02
CGAGTTTTGA | 0.956
CGATAAGGTG | 1.3
CGATAATGGA | 0.987
CGATAATTGG | 0.969
CGATACT | 1.05

Sequence | switch fluorescence ratio
CGATAGCGAC | 1.54
CGATAGGTT | 0.996
CGATCACGTA | 1.08
CGATCAGGCG | 1.01
CGATCATCT | 1.02
CGATCGAGTT | 0.959
CGATGACCCT | 1.05
CGATGAGACC | 1.01
CGATGAGCTT | 1
CGATGAGGTG | 1.15
CGATGAGTC | 1.01
CGATGATTG | 0.986
CGATGCCGG | 1.01
CGATGCTAGG | 1.08
CGATGGATT | 0.973
CGATGGGCCC | 1.04
CGATGTCTGG | 0.962
CGATGTGACA | 1.02
CGATGTGGGA | 1.02
CGATGTTTGA | 1.03
CGATTAATTG | 0.977
CGCAAAAATA | 1.03
CGCAAAGTGC | 2.63
CGCAAGTGCG | 1.13
CGCACAGACG | 1.14
CGCACATCTT | 1.37

Sequence | switch fluorescence ratio
CGCACCCCCT | 2.09
CGCACCGGGG | 1.07
CGCACGAAAA | 1.19
CGCACGATTT | 1.35
CGCACTTAA | 3.17
CGCACTTGCT | 1.08
CGCAGCCTTG | 1.05
CGCAGGAAGG | 0.956
CGCAGGACGA | 1.05
CGCAGGGTA | 1.05
CGCAGGGTTG | 1.06
CGCAGTTACG | 2.19
CGCATAATTG | 1.1
CGCATAGTAT | 1.08
CGCATGCACC | 1.75
CGCATGCGTT | 1.06
CGCATGGATA | 0.999
CGCATGTTAT | 1.13
CGCATTAGCT | 1.21
